Test results from paper PMC12136788.
Some of the results follow.

B1: chr1:39494447:39494448:+_ENSG00000168653_ENST00000372967|hu_mus|hu_hu_hu_mus_False|1_68 (ssRNA)
RNA: GGGAGUUCUACAGUCCGACGAUCGCACCGAGCGGCGUUCUUAUAGGGCUGUUCUGCGCUUAGGAACGUCAACCAUCGGUCCAGGCUGAUGCCCAGCUUUUUCUGUAUGUCAAGGAAAGGCAUGGCUCUGCAGUGCCCCCUUGACAACAGAGGAUUGAGCAUCA
B2: chr9:51871721:51871722:+_ENSMUSG00000032050_ENSMUST00000163153|mus_mus|FALSE|FALSE (ssRNA)
RNA: GGGAGUUCUACAGUCCGACGAUCUGUUUUUACAACCUGGUCAAAAAGUUGUUUGCCAGUUGUAUUGGGCUGGAUGGCAAAUUCUAGCUCAGCGUCCAUUGUAGUUACUCUUACAUUGAUUGGCUUCGGCAUUUUCUUUUUCUUCAACAGAGGAUUGAGCAUCA
B3: 82431812_82432152_2352_CDS_ENSG00000117114_ENST00000335786|human|control|control (ssRNA)
RNA: GGGAGUUCUACAGUCCGACGAUCUGCAUUUUCUGUACUAAGGAACUGUCCCAGGCUCCGGUAAAUGAUGAACACCAACUUUGCAAGCCCAUUCCUGCUGUUCUGUUUGACGGUAUUUGCGGACAGUUGGAUUGAGCUGCCUGCCAACAGAGGAUUGAGCAUCA
B4: chr7:149068622:149068623:-_ENSMUSG00000025139_ENSMUST00000001950|mus_hu|mus_mus_mus_hu_False|28_38 (ssRNA)
RNA: GGGAGUUCUACAGUCCGACGAUCGUGAGGCCUCUGAGUGUGGCUUGUGGUCUGUCCUGGGUUAGAGUUGUUAAUAUCACGGAACAUACCAUCUAGAGAGGUUCUGCCUGCCUGACUACCUUCAUUCCCAAUGGAGAAGAAAUCCAACAGAGGAUUGAGCAUCA
B5: chr2:217001844:217001845:+_ENSG00000079246_ENST00000392132|hu_hu|hu_hu_hu_mus_False|58_68 (ssRNA)
RNA: GGGAGUUCUACAGUCCGACGAUCACCAACUUGAGGAUUAGAUCUUUUGUCAUAAGCAUAUCGGACGAUGGCCACCAUGUCUAAGUCAUCCAAAGCAUGAACGAGAGAGGAAAGGGCAACAGCUGCCGCCUCAUCAUCCUUUGCCAACAGAGGAUUGAGCAUCA
B6: chr3:169712149:169712150:+_ENSG00000008952_ENST00000337002|hu_hu|motif|central (ssRNA)
RNA: GGGAGUUCUACAGUCCGACGAUCUUAAUUCAAACACUUAGAUGAGAAACAGCCUAAAGCAAAGACUGACAUACACGGCCGGUUUCAACCACAAAGCAAGAUGCUCUCACUGUGACUGAAGAAAAAUCAUUUAAUAUUCAUUAUCAACAGAGGAUUGAGCAUCA
B7: chr2:120799606:120799607:+_ENSG00000115109_ENST00000263713|hu_mus|FALSE|FALSE (ssRNA)
RNA: GGGAGUUCUACAGUCCGACGAUCAUACAUGAUUUGGUCAAACAGCUCCUGUCCUUUGGCUUUUUUCGGCAAGUCCACACUGACAUCUGUACCGUCCAGAAGGGACACCCUGCAUGUGAUGAUGGACUUGGCAUCCCCAGCGGCCAACAGAGGAUUGAGCAUCA
B8: chr4:132324321:132324322:+_ENSMUSG00000028884_ENSMUST00000102561|mus_mus|FALSE|FALSE (ssRNA)
RNA: GGGAGUUCUACAGUCCGACGAUCCACAUCCUGGUCGCAGUUCUCCGGAGAGAGCGGCCCAAGACGCUCGGACACGAAAACUAAGAACACUUGGGAACUCUGUGCCGCUCUGGCGUGGCAGCCUUCUGGCUACUUUGCACUGGCCAACAGAGGAUUGAGCAUCA
B9: 79327576_79327696_2732_ncRNA_ENSMUSG00000035835_ENSMUST00000166057|mouse|control|control (ssRNA)
RNA: GGGAGUUCUACAGUCCGACGAUCAUCCCCAUCACAGUUUUGCCAGGCUUAGUCCUGGUACCUCCUGGCCUGCAUCCUCCUAUAAUAACUUUCUGCCUCAGCCUCCACUUCUCUCUCUGCCAGCCCGCCCACCUGGCGCCUUAGCAACAGAGGAUUGAGCAUCA
B10: chr8:95530139:95530140:-_ENSG00000164944_ENST00000437199|hu_hu|FALSE|FALSE (ssRNA)
RNA: GGGAGUUCUACAGUCCGACGAUCAACAUCACUGGAAGACUGAACCACCACCAAAAUAAGUAUGCAUGCGUAAUUAUAAGCUACUGACUUCUUAGAUUUGGAAUCACCCAAGGCUUCUUUGGAAUAGUACUCCAUUAGAGUAAUCAACAGAGGAUUGAGCAUCA
B11: 30840609_30844903_216_CDS_ENSMUSG00000025607_ENSMUST00000048774|mouse|control|control (ssRNA)
RNA: GGGAGUUCUACAGUCCGACGAUCUUGAAACAAUCGAGUCAUUGCAAAGAAGGCUUCUGUAGCUUCCAUAGUUCCGAAGUGUUCACCCUGGUUGAGUAAGUAAAGAAUCUUUGUCAAGAUAUGCAAGCAUCUUCUUGGAUUGAUCAACAGAGGAUUGAGCAUCA
B12: chr16:94690093:94690094:+_ENSMUSG00000040785_ENSMUST00000117648|mus_hu|mus_mus_mus_hu_True|78_108 (ssRNA)
RNA: GGGAGUUCUACAGUCCGACGAUCGGGGACUCCUGUGGGACACACAGCCUCGAUUCCGGUAAAAAAAAGUCUUAGUCGAUACUAAUUAAAAAGUGUUAAUGAUUUUUGAAAAUCAGAUUACAUCUAUAAAAGAUGAAAAGCAAACAACAGAGGAUUGAGCAUCA
B13: chr17:38438176:38438177:+_ENSG00000171475_ENST00000323571|hu_hu|FALSE|FALSE (ssRNA)
RNA: GGGAGUUCUACAGUCCGACGAUCCACCUUGACCACAUGGCCAGGGACUGAGAUUCAAUGGGGAAAGAAAGACUGUAGCUGGAAUGUGAAGAAUUUGAUUUGCAGUUGAUUGCAGGUUGGGUUUCCGGAAGGGCAGACAGCUCACAACAGAGGAUUGAGCAUCA
B14: chr4:42069135:42069136:+_ENSG00000014824_ENST00000513699|hu_mus|FALSE|FALSE (ssRNA)
RNA: GGGAGUUCUACAGUCCGACGAUCAGCCGCUAUUAUCACUCCUAAGACAGCUGCAGUGUCCUCCAAUAGAAUAACAUUUGUACUCGGAUCACGACUUUCCAUGACAUACUUAUAAAAUGUCGUGCCCUUGGCCUGCGCGCUCCUCAACAGAGGAUUGAGCAUCA
B15: 66481216_66481824_669_CDS_ENSG00000173898_ENST00000309996|human|control|control (ssRNA)
RNA: GGGAGUUCUACAGUCCGACGAUCCCGGUGUUUAUGCACGAUGGCGUUGAAAGCUAGUCCAUCUCUCCAGCUGGUGGUGAAGUUGUGUACAUUGACGUUGGGAUAACCUGCAGUCUUCAUCUGGCACCACAGAAGCAGGGCAUCCAACAGAGGAUUGAGCAUCA
B16: 163842845_163842965_1594_3pUTR_ENSMUSG00000018326_ENSMUST00000018470|mouse|control|control (ssRNA)
RNA: GGGAGUUCUACAGUCCGACGAUCAGCCCUCAACCACAGGCAGAAUUACUGUGAGUUACCAAACUCAGGAUGCCGGUGGUCAGCAUCUCACCAAGUCCCAGCAUCACCACAGAAUCUCUAGAACUUUCUGUACAGCUUUACAACCAACAGAGGAUUGAGCAUCA
B17: chr1:39494564:39494565:+_ENSG00000168653_ENST00000372967|hu_hu|hu_hu_hu_mus_True|48_88 (ssRNA)
RNA: GGGAGUUCUACAGUCCGACGAUCAUGCAUUCGCCUCAUCGUUUUGUGCCGAAGCAAGCACUCUUCGAAGUCAUCGAACUCUAUCUUGCACUCUUUCUUCGCCCGGGUCCCACCGAUCCCGUGUGCACACUCUAUCCACUCUUUCAACAGAGGAUUGAGCAUCA
B18: chr4:147104108:147104109:+_ENSG00000164167_ENST00000515311|hu_hu|FALSE|FALSE (ssRNA)
RNA: GGGAGUUCUACAGUCCGACGAUCCGAUAAUCCACUCCAGAAUUUAAUUUUACCACAACUGGUCGUCCGAUGAUUUGCUUUAAGAAGUCACUAGGGGUUUGCUUCCGAAGACUCAUUUUAACAAUCCUCGCCGGCGGGAACCAGCAACAGAGGAUUGAGCAUCA
B19: chr7:135612270:135612271:-_ENSG00000105887_ENST00000393085|hu_mus|hu_hu_hu_mus_False|1_98 (ssRNA)
RNA: GGGAGUUCUACAGUCCGACGAUCGUUUUUUUCUGAGUAAGUAUUACGUACUUCAGUGGAAAACAAAACUUAACCUUUUAUUAAUGCGUGUUGUACCAAAAGCAGACAUUUUAGCUUCAUUUAUUCAAAAAUAUUAAGAACAUUCAACAGAGGAUUGAGCAUCA
B20: chr11:30433043:30433044:-_ENSG00000066382_ENST00000358117|hu_hu|FALSE|FALSE (ssRNA)
RNA: GGGAGUUCUACAGUCCGACGAUCUCACAUUCCAAUAGGGCAUUUAGAGCUUCAGGAACCCUGUGGGUUUGGAAGGUCAAAUAUAAUUGGAGGGUUGGUCGGUUGAAAGCUGACUGUACACGUCGAGGCAUUGAUGUACGUUGUCAACAGAGGAUUGAGCAUCA
B21: chr7:149068622:149068623:-_ENSMUSG00000025139_ENSMUST00000001950|mus_hu|mus_mus_mus_hu_False|18_98 (ssRNA)
RNA: GGGAGUUCUACAGUCCGACGAUCGUGAGGCCUCUGAGUGAGGUUCCUGGUCUGUCCUGGGUUAGAGUUGUUAAUAUCACGGAACAUACCAUCUAGAACGUUCCAGUCCCGCCUGACCAUCCACCCUCCAAUGGAGAAGAAAUCCAACAGAGGAUUGAGCAUCA
B22: chr6:170627217:170627218:+_ENSG00000112584_ENST00000537664|hu_hu|FALSE|FALSE (ssRNA)
RNA: GGGAGUUCUACAGUCCGACGAUCGUUACCUUUUUUGUCAAAGUUCUCUUUUACAGAGGUGUAGGACGAUAAGCAUUUGUACCUAAAGCUUUCAAACAUGCCCUCUGGGAUUAUGUCGUUGCCAAGGAGGCAGGCCAGAAGAGGCAACAGAGGAUUGAGCAUCA

Each binder was assayed against T1, UNK ZnF1-3 (human, UniProt Q9C0B0 31-174) (assay: nsRBNS (natural sequence RNA bind-n-seq); RBNS binding buffer (assumed for nsRBNS): 25 mM Tris pH 7.5, 150 mM KCl, 3 mM MgCl2, 0.01% Triton X-100, 500 ug/ml BSA, 20 U/ml SUPERase-In, 4 C; UNK is unkempt and MSI1 is Musashi-1; names of the RNAs are library labels; protein concentration not given here; high values mean tight binding).
T1 sequence: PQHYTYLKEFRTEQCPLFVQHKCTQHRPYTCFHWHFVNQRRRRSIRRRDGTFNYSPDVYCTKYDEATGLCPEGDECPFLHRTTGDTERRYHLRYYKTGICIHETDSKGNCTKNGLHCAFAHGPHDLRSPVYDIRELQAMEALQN

Row | Binder | binding signal [enrichment R]
1 | B1 | 0.521
2 | B2 | 0.374
3 | B3 | 1.02
4 | B4 | 0.763
5 | B5 | 1.81
6 | B6 | 1.4
7 | B7 | 0.835
8 | B8 | 0.674
9 | B9 | 1.33
10 | B10 | 2.06
11 | B11 | 1.31
12 | B12 | 1.92
13 | B13 | 1.91
14 | B14 | 1.78
15 | B15 | 0.959
16 | B16 | 1.73
17 | B17 | 0.598
18 | B18 | 1.14
19 | B19 | 0.782
20 | B20 | 0.97
21 | B21 | 0.8
22 | B22 | 1.04
